Data on 24 compounds can be found in PubChem BioAssay AID463173 (ICCB-Longwood Screening Facility, Harvard Medical School, 2010).

Out of some 52,000 compounds screened, about 1,700 (3.3%) were called active. Rule as the data show it: active = survival mostly below about 52% (no sharp cut-off); inactive = mostly above about 56%. The list shows a part of the results.

This test concerns Wild type. Description: growth inhibition of S. aureus wild type versus tarO mutant, primary screen, teichoic acid synthesis inhibitors, RN4220, OD600 (AID 463173). The following applies: S. aureus RN4220 wild type/DeltatarO growth, OD600, 18 h, hits give low values, screened at 18.75 µg/mL (by protocol).
With `Cc1cccc(Oc2ccc3c(c2)Oc2ccccc2NC3=O)c1`, the survival is inactive: 83%.

`Cc1ccc(NC(=O)Cn2cc(S(=O)(=O)N3CCC(C)CC3)c3ccccc3c2=O)c(Br)c1`: the survival was inactive: 72%.

As to `CCCCN(CCCNC(=O)c1c(C)oc2nc[nH]c(=O)c12)Cc1ccccc1`, the survival was inactive: 71%.

Take `COc1ccc(CNC(=O)c2cnn(-c3ccc(F)cc3)c2-n2cccc2)cc1`: the survival was inactive: 113%.

In the case of `CCN(CC)c1ncccc1C(=O)NCc1cccs1`, the survival is inactive: 107%.

In the case of `Cc1ccc(Nc2c(-c3cccnc3)nc3ccc(Br)cn23)cc1`, the survival was inactive: 73%.

Regarding `CNC(=O)c1c(NC(=O)c2ccc(S(=O)(=O)N3CCCCC3C)cc2)sc2c1CCC2` (centres undefined), the survival was inactive: 65%.

With `COc1ccc(-c2nnc(SCC(=O)N(C)Cc3ccccc3)o2)cc1OC`, the survival is inactive: 84%.

Consider `O=S(=O)(Nc1cccc(-c2ccc(N3CCCC3)nn2)c1)c1ccc(F)c(C(F)(F)F)c1`, for which the survival is inactive: 82%.

For the compound `CCc1cc2cc(C)cc(C)c2nc1SCC(=O)N1CCN(C(=O)c2ccco2)CC1`, the survival was inactive: 104%.

On to `CCOC(=O)c1cc(-c2ccccc2)n(-c2cccc(C(=O)Nc3cccc(C(C)=O)c3)c2)c1C`, for which the survival was inactive: 70%.

Take `COc1cccc(N2CCN(C(=O)CN3C(=O)COc4ccc(S(=O)(=O)N5CCC(C)CC5)cc43)CC2)c1`: the survival was inactive: 81%.

In the case of `Cc1oc2c(c(C)cc3oc(=O)c(CC(=O)NCc4ccccc4)c(C)c32)c1C`, the survival is inactive: 85%.

With `COc1ccc(C)cc1-n1nnc(C(=O)Nc2cccc(SC)c2)c1C`, the survival was inactive: 88%.

As to `Cc1c(Cl)cccc1NC(=O)Cn1cc2c(n1)CCCC2`, the survival was inactive: 89%.

On to `COc1ccc(C(=O)NCC(c2cccnc2)N2CCc3ccccc32)cc1OC` (centres undefined), for which the survival was inactive: 82%.

Turning to `Cc1cccc(CNC(=O)c2ccc(NC(=O)N3CCSc4ccccc43)cc2)c1`, the survival was inactive: 75%.

Consider `CC1CCc2c(sc(NC(=O)COc3ccccc3C(C)(C)C)c2C#N)C1` (centres undefined), for which the survival was inactive: 84%.

With `O=C(CSc1nc2c([nH]c3ccccc32)c(=O)n1-c1ccccc1)N1CCCCCC1`, the survival is inactive: 78%.

For `O=C(NCCCN1CCN(c2ccccc2F)CC1)c1cc2c(s1)-c1ccccc1OC2`, the survival is active: 11%.

For the compound `O=C(O)c1ccc(NC(=O)c2cc3ccccc3o2)cc1`, the survival is inactive: 72%.

`Cc1ccc(NC(=O)Cn2c(SCc3ccc(F)cc3)nc3cccnc32)cc1F`: the survival was inactive: 54%.

As to `CCCCOc1ccc(C(=O)N/C(=C\c2ccc(Br)cc2)C(=O)NC2CCCCC2)cc1`, the survival is inactive: 75%.

For `CSCCC(NS(=O)(=O)c1ccc2c(c1)oc(=O)n2C)C(=O)N1CCN(c2ccc(F)cc2)CC1` (centres undefined), the survival is inactive: 88%.
